Test results taken from PMC10432808.
These are yes or no findings as the source states them, for the method shown. For some assays here: Binding seen in cells or lysates may run through a third protein. Some binding calls cover weakened binding; strength is not graded here.

By UniProt entry, the sequences of proteins in these tests, tags left out. Where a name states a change or a piece, a line headed by the entry shows the natural chain unless it says otherwise. Chains listed by the source or under a name are the forms on record and can include a tag or linker. Residues count along the entry.
UniProt P06730: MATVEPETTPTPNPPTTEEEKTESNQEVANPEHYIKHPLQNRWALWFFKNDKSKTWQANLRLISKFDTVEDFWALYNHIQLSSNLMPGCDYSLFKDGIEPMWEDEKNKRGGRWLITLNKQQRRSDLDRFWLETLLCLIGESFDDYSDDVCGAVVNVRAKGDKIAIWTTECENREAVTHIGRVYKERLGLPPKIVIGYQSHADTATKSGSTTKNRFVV
UniProt D3ZYS7: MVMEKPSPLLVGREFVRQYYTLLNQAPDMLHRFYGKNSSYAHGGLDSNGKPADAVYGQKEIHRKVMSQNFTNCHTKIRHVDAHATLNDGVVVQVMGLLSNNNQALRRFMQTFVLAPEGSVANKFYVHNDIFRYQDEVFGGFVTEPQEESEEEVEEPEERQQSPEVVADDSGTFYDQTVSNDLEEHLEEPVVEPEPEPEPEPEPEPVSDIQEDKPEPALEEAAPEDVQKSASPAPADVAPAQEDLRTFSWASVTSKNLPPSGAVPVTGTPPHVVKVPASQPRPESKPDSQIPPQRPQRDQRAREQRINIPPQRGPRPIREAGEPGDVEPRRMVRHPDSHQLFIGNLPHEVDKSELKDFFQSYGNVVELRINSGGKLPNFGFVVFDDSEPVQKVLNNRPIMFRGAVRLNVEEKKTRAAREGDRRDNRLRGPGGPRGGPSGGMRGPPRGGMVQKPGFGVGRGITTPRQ
FLAG-tagged NTF2+AcidRich+PxxP of rat G3BP1: residues 1-340 of D3ZYS7
FLAG-tagged NTF2-like domain of rat G3BP1: residues 1-140 of D3ZYS7
FLAG-tagged AcidRich+PxxP of rat G3BP1: residues 141-340 of D3ZYS7
UniProt Q13283: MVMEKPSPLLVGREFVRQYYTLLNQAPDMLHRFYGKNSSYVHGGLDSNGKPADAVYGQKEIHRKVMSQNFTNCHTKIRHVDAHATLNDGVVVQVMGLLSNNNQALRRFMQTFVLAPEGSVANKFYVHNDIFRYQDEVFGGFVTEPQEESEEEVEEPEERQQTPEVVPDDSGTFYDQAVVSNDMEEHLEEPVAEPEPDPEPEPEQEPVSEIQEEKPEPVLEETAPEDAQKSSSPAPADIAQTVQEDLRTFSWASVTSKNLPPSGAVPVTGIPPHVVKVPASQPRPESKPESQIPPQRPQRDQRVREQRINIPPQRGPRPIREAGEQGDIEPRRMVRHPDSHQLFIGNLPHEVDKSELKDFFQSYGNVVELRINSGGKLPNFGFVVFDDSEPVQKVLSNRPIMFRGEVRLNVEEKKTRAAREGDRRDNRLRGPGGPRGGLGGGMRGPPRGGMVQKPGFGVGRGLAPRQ

Assays:
[1] = biological target: GST-eIF4E, purified recombinant protein (UniProt P06730); test: pull-down; His-G3BP1 (2 μg) and GST-eIF4E (4 μg) mixed in Tris buffer with proteinase inhibitors overnight at 4 °C; GSH beads 2 h at 4 °C; Western blot; cell-free; both purified
[2] = biological target: FLAG-tagged full-length rat G3BP1 (rat) (UniProt D3ZYS7); test: co-IP; HEK293T cells transfected with FLAG-tagged G3BP1 constructs; lysate (1 mg) with FLAG beads 2 h at 4 °C; Western blot for endogenous eIF4E
[3] = biological target: FLAG-tagged NTF2+AcidRich+PxxP of rat G3BP1 (rat) (UniProt D3ZYS7); test: as above
[4] = biological target: FLAG-tagged NTF2-like domain of rat G3BP1 (rat) (UniProt D3ZYS7); test: as above
[5] = biological target: FLAG-tagged AcidRich+PxxP of rat G3BP1 (rat) (UniProt D3ZYS7); test: as above

Row | binding [1] | binding [2] | binding [3] | binding [4] | binding [5] | Substance
1 | binds |  |  |  |  | His-G3BP1, purified recombinant protein (from UniProt Q13283 1-466)
2 |  | binds | no binding | binds | no binding | eIF4E, endogenous in HEK293T cells (from UniProt P06730 1-217)
